Measurements published in paper PMC4336329 (PLoS ONE, 2015).
Screen size: about 310,000 compounds; about 14,000 (4.5%) showed an effect of 50% or more. The effect is printed as a negative number. The list shows a part of the results.
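Also: peak tail current of the secondary pulse compared with the same well before compound.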

These molecules were tested against human ether-à-go-go-related gene (hERG) potassium channel (human, UniProt Q12809) (assay: primary screen, population patch clamp on CHO cells stably expressing hERG).
human ether-à-go-go-related gene (hERG) potassium channel, sequence (Q12809 whole entry, looked up): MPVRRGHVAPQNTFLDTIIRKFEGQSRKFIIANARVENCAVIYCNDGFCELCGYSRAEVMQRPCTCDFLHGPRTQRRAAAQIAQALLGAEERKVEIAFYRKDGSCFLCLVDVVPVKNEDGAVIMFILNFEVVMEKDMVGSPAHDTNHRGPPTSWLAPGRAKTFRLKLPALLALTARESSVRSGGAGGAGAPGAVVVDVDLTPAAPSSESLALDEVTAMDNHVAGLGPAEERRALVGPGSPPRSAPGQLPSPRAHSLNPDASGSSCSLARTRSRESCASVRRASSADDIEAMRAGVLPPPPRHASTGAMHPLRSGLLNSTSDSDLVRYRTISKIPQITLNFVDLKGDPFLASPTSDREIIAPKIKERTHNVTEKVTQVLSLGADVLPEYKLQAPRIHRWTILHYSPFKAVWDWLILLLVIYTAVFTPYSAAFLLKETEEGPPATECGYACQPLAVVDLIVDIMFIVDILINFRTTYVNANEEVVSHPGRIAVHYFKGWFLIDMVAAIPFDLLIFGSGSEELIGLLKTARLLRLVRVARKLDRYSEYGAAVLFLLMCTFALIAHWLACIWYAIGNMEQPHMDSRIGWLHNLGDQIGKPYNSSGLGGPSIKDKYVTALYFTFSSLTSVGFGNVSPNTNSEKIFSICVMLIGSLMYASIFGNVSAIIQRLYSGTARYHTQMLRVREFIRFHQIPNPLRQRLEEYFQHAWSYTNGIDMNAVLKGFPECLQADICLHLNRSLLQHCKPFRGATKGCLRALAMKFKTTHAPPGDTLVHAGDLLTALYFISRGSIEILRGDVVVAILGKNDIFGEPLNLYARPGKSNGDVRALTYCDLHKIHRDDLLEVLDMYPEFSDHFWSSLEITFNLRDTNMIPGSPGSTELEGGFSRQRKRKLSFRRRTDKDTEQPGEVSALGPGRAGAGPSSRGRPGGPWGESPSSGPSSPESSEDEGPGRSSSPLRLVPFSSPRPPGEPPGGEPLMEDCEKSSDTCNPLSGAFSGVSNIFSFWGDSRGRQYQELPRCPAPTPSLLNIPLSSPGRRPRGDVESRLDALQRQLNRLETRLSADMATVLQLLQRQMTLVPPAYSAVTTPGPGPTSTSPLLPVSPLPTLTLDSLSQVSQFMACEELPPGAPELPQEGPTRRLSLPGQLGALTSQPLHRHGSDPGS
Experimental: Briefly, Chinese hamster ovary (CHO) cells stably expressing the hERG channel were dislodged from tissue culture flasks and dispensed into PPC plates. […] During the recording, background leak currents were estimated by a 100 ms step to -80 mV from an initial holding potential of -70 mV and subtracted from the subsequent current measurement. The campaign was conducted in two phases using slight differences in recording protocol. In the first phase, the initial voltage pulse used a 100 ms step to -30 mV from a holding potential of -70 mV, a 2 s conditioning step to +25 mV, and a 2 s test step to -30 mV. During the second phase of the screen, the potential during the conditioning step was raised to +45 mV. In both phases of the campaign, a secondary voltage pulse was applied using the same parameters as the second phase initial pulse. The initial and secondary pulses were applied in the absence of compound, and upon application of 1 μM and 10 μM test concentrations. […]
In the case of `CN(C)CCCN(C(=O)c1ccc([N+](=O)[O-])s1)c1nc2cc3c(cc2s1)OCCO3.Cl`, the “hERG current change (%, negative = inhibition) at 10uM” value was -71.3%.
With `CC(=O)NC(c1ccco1)c1cc(Cl)c2ccc(Cl)nc2c1O` (stereo not shown) the “hERG current change (%, negative = inhibition) at 10uM” value was -20.4%.
`COc1cc(CC(C)N)c(OC)cc1I.Cl` (stereo not shown) was tested, and the “hERG current change (%, negative = inhibition) at 10uM” value was -12.7%.
With `O=C(Nc1cscc1S(=O)(=O)c1ccccc1)c1ccccc1Cl` the “hERG current change (%, negative = inhibition) at 10uM” value was -9.12%.
In the case of `O=C(CC1C(=O)NCCN1Cc1cccc(F)c1)NCCCOc1cccnc1` (stereo not shown), the “hERG current change (%, negative = inhibition) at 10uM” value was 0.777%.
For `N#CCC(=O)Nc1ccc(C(=O)Nc2cccnc2)cc1`, the “hERG current change (%, negative = inhibition) at 10uM” value was 7.29%.
For `CCOC(=O)c1c(NC(=O)c2nc3n(n2)C(C(F)F)CC(C)N3)sc2c1CCCC2` (stereo not shown), the “hERG current change (%, negative = inhibition) at 10uM” value was 15.4%.
With `COc1ccc(NC(=O)/C=C/c2ccc(OC)c(OC)c2)cn1` the “hERG current change (%, negative = inhibition) at 10uM” value was 14.7%.
In the case of `CC1=NN(C(=O)CSCc2ccccc2)C(O)(c2ccc(Cl)cc2)C1` (stereo not shown), the “hERG current change (%, negative = inhibition) at 10uM” value was -21.6%.
With `N#CCOc1coc(CN2CCN(c3ccccc3)CC2)cc1=O` the “hERG current change (%, negative = inhibition) at 10uM” value was 7.53%.
With `C[C@H]1COc2c(C3(N)CC3)c(F)cc3c(=O)c(C(=O)O)cn1c23` the “hERG current change (%, negative = inhibition) at 10uM” value was 16.4%.
With `Cc1ccc(NC(=O)N2C3CCCC2CC(NC(=O)C2CC2)C3)cc1` (stereo not shown) the “hERG current change (%, negative = inhibition) at 10uM” value was 17.5%.
For `O=C(O)/C=C/C(=O)Nc1ccc(NC(=O)c2ccccc2)c(Cl)c1`, the “hERG current change (%, negative = inhibition) at 10uM” value was 21.4%.
With `CC(=O)N(C)c1ccc(NC(=O)Cc2cccc3ccccc23)cc1` the “hERG current change (%, negative = inhibition) at 10uM” value was 7.53%.
`CC(=O)NC1=NN(C(C)=O)C(C)(c2ccc(C)o2)S1` (stereo not shown) was tested, and the “hERG current change (%, negative = inhibition) at 10uM” value was 11.8%.
In the case of `Cn1c(CN2CCOCC2)nc2cc(NC(=O)c3ccc(Cl)cc3)ccc21`, the “hERG current change (%, negative = inhibition) at 10uM” value was -34.2%.
`O=C(CCCn1c(=O)c2sccc2n(CC(=O)NCc2ccco2)c1=O)NCc1ccco1` was tested, and the “hERG current change (%, negative = inhibition) at 10uM” value was -6.69%.
`CCOc1ccccc1NC(=O)CCn1nc(C)c(S(=O)(=O)N2CCCCC2)c1C` was tested, and the “hERG current change (%, negative = inhibition) at 10uM” value was 11.6%.
In the case of `Cc1ccc(S(=O)(=O)Cc2ccc(C(=O)N3CCC4(CC3)OCCO4)o2)cc1`, the “hERG current change (%, negative = inhibition) at 10uM” value was 2.19%.
With `O=C(CCCCC(=O)Nc1ccccc1Cl)Nc1ccccc1Cl` the “hERG current change (%, negative = inhibition) at 10uM” value was 16.3%.
For `Cc1ccc(-c2cc(C(=O)N3CCCCC3)c3ccccc3n2)cc1C`, the “hERG current change (%, negative = inhibition) at 10uM” value was -2.35%.
With `COc1ccc(C)cc1NC(=O)C1CCCN(S(=O)(=O)c2cnc[nH]2)C1` (stereo not shown) the “hERG current change (%, negative = inhibition) at 10uM” value was 6.37%.
With `CCCC(=O)NC(=S)Nc1cccc2c(O)cccc12` the “hERG current change (%, negative = inhibition) at 10uM” value was 11.8%.
With `CCOCCCn1c(SCC(=O)Nc2ccc(NC(C)=O)cc2)nc2ccccc2c1=O` the “hERG current change (%, negative = inhibition) at 10uM” value was 7.29%.
For `c1ccc(Cc2nnc3sc(C4COc5ccccc5O4)nn23)cc1` (stereo not shown), the “hERG current change (%, negative = inhibition) at 10uM” value was -10.9%.
In the case of `O=C(O)CN(c1ccccc1[N+](=O)[O-])S(=O)(=O)c1ccccc1`, the “hERG current change (%, negative = inhibition) at 10uM” value was 35.5%.
With `O=C(Nc1ccc(S(=O)(=O)Nc2ncccn2)cc1)C(F)(F)F` the “hERG current change (%, negative = inhibition) at 10uM” value was 21.2%.
With `O=C(CN1C(=O)S/C(=C\c2cccs2)C1=O)Nc1ccc(O)c(C(=O)O)c1` the “hERG current change (%, negative = inhibition) at 10uM” value was -9.36%.
In the case of `Cc1cccc(OCC(=O)Nc2ccc3c4c(cccc24)CC3)c1C`, the “hERG current change (%, negative = inhibition) at 10uM” value was 12%.
`CCN1CCC(N2CCN(c3ccc(Cl)cc3)CC2)CC1` was tested, and the “hERG current change (%, negative = inhibition) at 10uM” value was -18.8%.
For `Cc1ccc(NC(=O)C2CCN(S(C)(=O)=O)CC2)cc1`, the “hERG current change (%, negative = inhibition) at 10uM” value was 12.1%.
`COc1cc(/C=N/NC(=O)Cn2nnc3ccccc32)ccc1O` was tested, and the “hERG current change (%, negative = inhibition) at 10uM” value was 8.83%.
With `c1ccc(CCCCN2CCN=C2Nc2ccccc2)cc1` the “hERG current change (%, negative = inhibition) at 10uM” value was -42%.
In the case of `Cc1[nH]n(-c2ccccc2)c(=O)c1C(c1ccccc1C(=O)O)c1c(C)[nH]n(-c2ccccc2)c1=O`, the “hERG current change (%, negative = inhibition) at 10uM” value was 5.58%.
`Cc1ccccc1NC(=O)NC1(C(=O)N2CCOCC2)CCCCC1` was tested, and the “hERG current change (%, negative = inhibition) at 10uM” value was 14.6%.
For `CC(C)NC(=O)CC(=O)N/N=C/c1cccs1`, the “hERG current change (%, negative = inhibition) at 10uM” value was 19.9%.
For `O=C(NCc1ccccc1)c1ccc2nnsc2c1`, the “hERG current change (%, negative = inhibition) at 10uM” value was -1.17%.
With `CC(=O)N1CCCC(N2CCN(c3cccc(C(F)(F)F)c3)CC2)C1` (stereo not shown) the “hERG current change (%, negative = inhibition) at 10uM” value was -3.73%.
With `CC(=O)c1ccc(NC(=O)c2cc(CC(C)C)on2)cc1` the “hERG current change (%, negative = inhibition) at 10uM” value was 9.71%.
In the case of `CCN(C(=O)COC(=O)/C=C/c1ccco1)c1c(N)n(Cc2ccccc2)c(=O)[nH]c1=O`, the “hERG current change (%, negative = inhibition) at 10uM” value was -1.01%.
In the case of `O=C(Nc1ccc(F)cc1)C(c1ccccc1)N1CCN(CC(=O)N2CCOCC2)CC1` (stereo not shown), the “hERG current change (%, negative = inhibition) at 10uM” value was -52.1%.
For `CCN(CC(=O)N1CCCC1)S(=O)(=O)c1ccc(F)cc1`, the “hERG current change (%, negative = inhibition) at 10uM” value was 12.9%.
In the case of `Cc1cccc(Cl)c1NC(=O)N1CCN(c2ccnc3cc(Cl)ccc23)CC1`, the “hERG current change (%, negative = inhibition) at 10uM” value was -16.8%.
With `Cc1nnc(SCC(=O)N2CCCC(C(=O)c3ccc(Cl)cc3)C2)o1` (stereo not shown) the “hERG current change (%, negative = inhibition) at 10uM” value was -16%.
`COc1ccc(NC(=O)C(=O)NCCC2CCCCN2S(=O)(=O)c2ccccc2)cc1` (stereo not shown) was tested, and the “hERG current change (%, negative = inhibition) at 10uM” value was -43.2%.
With `COc1ccc(OC)c(C(=O)c2coc3ccc(OC(C)=O)cc23)c1` the “hERG current change (%, negative = inhibition) at 10uM” value was 2.92%.
With `COc1ccccc1C(=O)N/C(=C/c1ccco1)C(=O)Nc1ccc(C(=O)O)cc1` the “hERG current change (%, negative = inhibition) at 10uM” value was 13.7%.
For `Cc1ccc(S(=O)(=O)N2CCC(n3nnc4cc(C)ccc43)CC2)cc1`, the “hERG current change (%, negative = inhibition) at 10uM” value was -28.9%.
With `CCn1c(Cn2nnc(-c3ccccc3)n2)nnc1SCC(=O)Nc1ccc(C(C)=O)cc1` the “hERG current change (%, negative = inhibition) at 10uM” value was -1.99%.
`COc1ccc(C2(C)NC(=O)N(CC(=O)NCc3ccccc3)C2=O)cc1OC` (stereo not shown) was tested, and the “hERG current change (%, negative = inhibition) at 10uM” value was 27.7%.
For `Cc1ccc(S(=O)(=O)c2c(N)n(/N=C/c3ccco3)c3nc4ccccc4nc23)cc1C`, the “hERG current change (%, negative = inhibition) at 10uM” value was -16%.
For `CCN(CC(=O)Nc1ccc(OC)cc1)CC(=O)Nc1ccc(Br)cc1F`, the “hERG current change (%, negative = inhibition) at 10uM” value was -67.4%.
`CC1=CC2CC1C1C(=O)N(c3ccc(S(=O)(=O)Nc4nc(C)cc(C)n4)cc3)C(=O)C21` (stereo not shown) was tested, and the “hERG current change (%, negative = inhibition) at 10uM” value was 25.2%.
For `N/C(COc1ccc(Cl)cc1Cl)=N\O`, the “hERG current change (%, negative = inhibition) at 10uM” value was -1.25%.
For `COc1ccc2nc(NCCCNC(=O)c3cc(OC)c(OC)c(OC)c3)c(C#N)cc2c1`, the “hERG current change (%, negative = inhibition) at 10uM” value was -11%.
